The results in this text go back to the RNAGym collection of RNA variant scans (doi:10.1101/gad.245936.114).

This sample is rich in variants without activity.

The labels stand for the following.
B1: tRNA (parent)
chain: CUCUCGGUAGCCAAGUUGGUUUAAGGCGCAAGACUUUAAUUUAUCACUACGAAAUCUUGAGAUCGGGCGUUCGACUCGCCCCCGGGAGAUUUUUUCCUCGAGCAA

Variants of B1 are the subject of this data set. The data set can be described thus: nonsense suppression (GFP-seq) (ratio to wild type); higher = more function; SUP4oc tRNA, yeast GFP reporter sort-seq. In a few lines: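 Yeast were grown in raffinose/galactose medium with 80 mg/L adenine, each strain bearing a genome-integrated ochre-suppressor tRNA variant from a ~3% random-mutation library, a galactose-driven GFP ochre reporter, and RFP. After sorting into GFP/RFP bins, every bin was sequenced on an Illumina platform at phred ≥30. The GFPSEQ value, a measure of nonsense suppression, is the weighted bin median GFP/RFP relative to the unmutated parent tRNA, using each variant's estimated cell share per bin as the weight. Only variants with ≥100 reads and ≥30 cells were included.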
Consider C1U A13C A74G G85A A89U, for which the nonsense suppression is at most 0.026. As for A30G C77U, the figure is at most 0.026; as for G84C, at most 0.026; as for C1G U16C G26U, at most 0.026. Take U58G C75G: the nonsense suppression is at most 0.026. In the case of A13C A30U G85A, the nonsense suppression is 0.157.

As for U4A G6C G65C C77U, the nonsense suppression was at most 0.026. As for C3G G7C U55A, the figure is at most 0.026; as for C5A A54G C64G, at most 0.026; as for U35G G59U, at most 0.026. For A54G G61C, the nonsense suppression is at most 0.026. To A9G U22A G25U belongs at most 0.026; to A62C G65C, at most 0.026. In the case of C11U G25C C80G, the nonsense suppression is at most 0.026. Consider A23C A24G G28A G61U U63G G67A, for which the nonsense suppression is at most 0.026. In the case of C12A A62U, the nonsense suppression was at most 0.026. As for G6U A23U C79U, the nonsense suppression was at most 0.026. Turning to G18U G25U G67C, the nonsense suppression was at most 0.026. Take G26C G86U: the nonsense suppression was at most 0.026. With C1G G15C U35G U71A G85U, the nonsense suppression was at most 0.026. Turning to A31G C75A A89G, the nonsense suppression was at most 0.026. On to G18C G67A G69U, for which the nonsense suppression is at most 0.026. Consider U63A G78A, for which the nonsense suppression was found to be 0.06. G18C A23U U57G G88C: the nonsense suppression is at most 0.026. As to U8C G15A G26U, the nonsense suppression was at most 0.026. For A14U C34G G78C, the nonsense suppression was at most 0.026.

Consider G15A A24G A60C, for which the nonsense suppression is at most 0.026. With G10U G59A A87C, the nonsense suppression was at most 0.026. For the variant C3U C11U A24U C29U C34A A62G, the nonsense suppression is at most 0.026. As for U4C C12G U55G G86U, the nonsense suppression is at most 0.026.

In the case of C34U U63C G84A G88U, the nonsense suppression was at most 0.026.

On to G10C C64G C80A, for which the nonsense suppression was at most 0.026. For the variant A14G A30U A54C G65A, the nonsense suppression was at most 0.026. On to A74G G78C G86C, for which the nonsense suppression is at most 0.026. As to U57G G88U, the nonsense suppression is at most 0.026. Consider U4A U57G, for which the nonsense suppression was at most 0.026. For G28A A89C, the nonsense suppression is at most 0.026. Turning to C29A A33G C72A C82G, the nonsense suppression is at most 0.026. As to C1U C3A C29A, the nonsense suppression is at most 0.026. Consider U63C C64G, for which the nonsense suppression was at most 0.026.

Regarding U8G A14U U20A A62U, the nonsense suppression was at most 0.026.

Consider U4G G19C A23C, for which the nonsense suppression is at most 0.026. As for U20G A31U C68U, the figure is at most 0.026; as for C3A C11U, at most 0.026; as for C3A G7C, at most 0.026. For the variant G65A G78C, the nonsense suppression was at most 0.026.

Regarding A54C G84A, the nonsense suppression is at most 0.026. U57A G86U: the nonsense suppression was at most 0.026.

As for G10A A23C, the nonsense suppression is at most 0.026. Regarding A23U A33G G66U, the nonsense suppression was at most 0.026. Turning to G15U U22A, the nonsense suppression is at most 0.026. On to U63C A74U, for which the nonsense suppression is at most 0.026. For U4G U21C G65A, the nonsense suppression was at most 0.026. To G18C U63A belongs at most 0.026; to C5U A54U A62C, at most 0.026. For U58G G61C, the nonsense suppression is at most 0.026.

Turning to U57C A60G C80G G88A, the nonsense suppression is at most 0.026. For the variant C5U G18A G32A, the nonsense suppression was at most 0.026. As to G65C C79A G88A, the nonsense suppression was at most 0.026. On to C5G A23U G26U U35G, for which the nonsense suppression is at most 0.026. For G84C G86U, the nonsense suppression is at most 0.026. To C12G A33U G59C C68G belongs at most 0.026; to A24U A33G A54C, at most 0.026. As for A54C U63C, the figure is 0.729; as for G10A G88C, at most 0.026. As for A24C C82G A87C, the figure is at most 0.026; as for C11G G61C G69U G73C U76G, at most 0.026. Consider U22C, for which the nonsense suppression was determined as 1. For the variant U22G, the nonsense suppression was 0.989.

As for C1G G67C, the nonsense suppression was at most 0.026. To A23G U55C U58A belongs at most 0.026; to U22C G26A U57G, at most 0.026. Consider U20C C77U, for which the nonsense suppression came out at 0.0349.

For A9C C11U G61C C64A G73A, the nonsense suppression was at most 0.026. In the case of A13C A87C, the nonsense suppression was determined as 0.0539. For the variant U63A C64A, the nonsense suppression is at most 0.026.

Turning to A13C G69U, the nonsense suppression was at most 0.026. For G18U A24U G69A, the nonsense suppression was at most 0.026. As for U2C G26A A89U, the figure is at most 0.026; as for A30U G85U, 0.0315; as for G15A G28A C75A, 0.24.

In the case of U58G U63G, the nonsense suppression was at most 0.026. For the variant U4G G59C U76C, the nonsense suppression is at most 0.026.

As for A14U U76A, the nonsense suppression is at most 0.026.

In the case of G6U U17C G28U U55C G69U G88U, the nonsense suppression is at most 0.026. As for C3U C29A, the figure is at most 0.026; as for G26C U70C, at most 0.026. As to C1U G65C C79U G84U, the nonsense suppression is at most 0.026. G78A C79U: the nonsense suppression was at most 0.026. Take C34A G59C: the nonsense suppression is at most 0.026. As for C11G A13U U17A, the nonsense suppression is at most 0.026. Consider G28U C56U U57G C75A, for which the nonsense suppression was at most 0.026.

Take U22G G25U G61C G66U: the nonsense suppression is at most 0.026. As for U4A U35G U57A, the nonsense suppression is at most 0.026.

Take C3G U71G C83A A87U: the nonsense suppression is at most 0.026. Take C1U G85A: the nonsense suppression was at most 0.026. To A31U A60G belongs at most 0.026; to G6C U21C A24C, at most 0.026. As for A9G U76G C80G, the figure is at most 0.026; as for G25C U71C C72U G73U, at most 0.026; as for U4C C11G A13G G26U, at most 0.026. Consider U21A A23C, for which the nonsense suppression was at most 0.026. Regarding U2G C3A, the nonsense suppression was at most 0.026. In the case of U21G A33G, the nonsense suppression was at most 0.026.

As for A13G G32C G69C C72U, the nonsense suppression is at most 0.026. As to U17A U35G G66A G67U, the nonsense suppression is at most 0.026. As for G32C C75G, the figure is at most 0.026; as for A14C U71G, at most 0.026; as for G19U A33U C34U A60C G73U C75A, at most 0.026. Consider G15C U21G U70A, for which the nonsense suppression was at most 0.026. To A9G U55G A89C belongs at most 0.026. Turning to G32C C56G A60C, the nonsense suppression was found to be 0.275.

With A62G U63C G66A, the nonsense suppression is at most 0.026. For the variant G15A U57A, the nonsense suppression is at most 0.026. On to G25C A60G C83G, for which the nonsense suppression was at most 0.026. In the case of C34G U71A, the nonsense suppression was at most 0.026. As to C11G A31U U71A C72A A74C C81A C82U, the nonsense suppression was at most 0.026. On to U2G U63A U70G A74C, for which the nonsense suppression was at most 0.026.

As for G78U C83A G88U, the nonsense suppression is at most 0.026. As to C5A G26C U35C, the nonsense suppression is at most 0.026. Regarding C11A G69A, the nonsense suppression was at most 0.026. To A54U C83G G84U belongs at most 0.026.

For the variant U21A U57G, the nonsense suppression is at most 0.026. With A14G A24G, the nonsense suppression was at most 0.026. In the case of A14G A24C, the nonsense suppression was at most 0.026. As for G28C U58G G66C, the figure is at most 0.026. For U17C U22G U57C, the nonsense suppression was at most 0.026. As for G15A U22G G28U C34G U57C U58A C80U, the figure is at most 0.026; as for C29A G85C, at most 0.026. On to G10A U35C, for which the nonsense suppression is at most 0.026. To C64G G69A U70G belongs at most 0.026; to A54C G69C C75U U76G G85C, at most 0.026; to G18U C27G A30C G66U, at most 0.026. With C1A U8A U16G U21A U57C U76C, the nonsense suppression is at most 0.026.

Regarding C3A U8G A13G, the nonsense suppression was at most 0.026.

For C1U G65U, the nonsense suppression is at most 0.026. Regarding G15A A24G C29G A60C, the nonsense suppression was at most 0.026. As for G19C A33G, the figure is at most 0.026; as for C29G C75U, at most 0.026.

On to A33U C56G A87U, for which the nonsense suppression was at most 0.026. As for U2C A31G C72U, the figure is at most 0.026; as for C5A U55C A89G, at most 0.026; as for C1G U17C G19A G88A, at most 0.026.

For the variant U2G U4C A9G C34G C77U, the nonsense suppression was at most 0.026.

Turning to G19A U57C, the nonsense suppression was at most 0.026. As for G66U C81G G86U, the figure is at most 0.026. As to A31U G66C, the nonsense suppression was at most 0.026.

Turning to A31U C34U U55C, the nonsense suppression was at most 0.026. On to U35C U57A U76A, for which the nonsense suppression was at most 0.026. As for A30U G65A A89G, the nonsense suppression was at most 0.026. To G6A A33U belongs at most 0.026; to A30C U57A G84C, at most 0.026. As to C11U U71C, the nonsense suppression is at most 0.026. To A33G C79U belongs 0.0403. With C1U C82G, the nonsense suppression was at most 0.026. For the variant A9U U35A, the nonsense suppression was at most 0.026. In the case of C1U A14G A31G U58G, the nonsense suppression is at most 0.026.

For the variant U4G G61A, the nonsense suppression came out at 0.189. For the variant U2A C3A C72A, the nonsense suppression is at most 0.026. U4A A23C G28U C68G U71G U76G: the nonsense suppression was at most 0.026. With U16C G65C, the nonsense suppression was at most 0.026. Turning to C12A C80G G88A, the nonsense suppression is at most 0.026. U71C G73U A87C: the nonsense suppression was at most 0.026.

As for A13G G84A, the nonsense suppression was at most 0.026. Regarding U20A, the nonsense suppression is 1.18. On to A31U U76C, for which the nonsense suppression was at most 0.026. Take G15A G25U C56G: the nonsense suppression is at most 0.026.
